Laboratory results: publication PMC4336329 (PLoS ONE, 2015)
Among all 310,000 compounds or so, about 14,000 (4.5%) showed an effect of 50% or more. Effects have a minus sign here. Some of the results follow.

These molecules were tested against human ether-à-go-go-related gene (hERG) potassium channel (human, UniProt Q12809) (assay: primary screen, population patch clamp on CHO cells stably expressing hERG).
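Note: peak tail current of the secondary pulse compared with the same well before compound.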

Chain of human ether-à-go-go-related gene (hERG) potassium channel (Q12809 whole entry, looked up): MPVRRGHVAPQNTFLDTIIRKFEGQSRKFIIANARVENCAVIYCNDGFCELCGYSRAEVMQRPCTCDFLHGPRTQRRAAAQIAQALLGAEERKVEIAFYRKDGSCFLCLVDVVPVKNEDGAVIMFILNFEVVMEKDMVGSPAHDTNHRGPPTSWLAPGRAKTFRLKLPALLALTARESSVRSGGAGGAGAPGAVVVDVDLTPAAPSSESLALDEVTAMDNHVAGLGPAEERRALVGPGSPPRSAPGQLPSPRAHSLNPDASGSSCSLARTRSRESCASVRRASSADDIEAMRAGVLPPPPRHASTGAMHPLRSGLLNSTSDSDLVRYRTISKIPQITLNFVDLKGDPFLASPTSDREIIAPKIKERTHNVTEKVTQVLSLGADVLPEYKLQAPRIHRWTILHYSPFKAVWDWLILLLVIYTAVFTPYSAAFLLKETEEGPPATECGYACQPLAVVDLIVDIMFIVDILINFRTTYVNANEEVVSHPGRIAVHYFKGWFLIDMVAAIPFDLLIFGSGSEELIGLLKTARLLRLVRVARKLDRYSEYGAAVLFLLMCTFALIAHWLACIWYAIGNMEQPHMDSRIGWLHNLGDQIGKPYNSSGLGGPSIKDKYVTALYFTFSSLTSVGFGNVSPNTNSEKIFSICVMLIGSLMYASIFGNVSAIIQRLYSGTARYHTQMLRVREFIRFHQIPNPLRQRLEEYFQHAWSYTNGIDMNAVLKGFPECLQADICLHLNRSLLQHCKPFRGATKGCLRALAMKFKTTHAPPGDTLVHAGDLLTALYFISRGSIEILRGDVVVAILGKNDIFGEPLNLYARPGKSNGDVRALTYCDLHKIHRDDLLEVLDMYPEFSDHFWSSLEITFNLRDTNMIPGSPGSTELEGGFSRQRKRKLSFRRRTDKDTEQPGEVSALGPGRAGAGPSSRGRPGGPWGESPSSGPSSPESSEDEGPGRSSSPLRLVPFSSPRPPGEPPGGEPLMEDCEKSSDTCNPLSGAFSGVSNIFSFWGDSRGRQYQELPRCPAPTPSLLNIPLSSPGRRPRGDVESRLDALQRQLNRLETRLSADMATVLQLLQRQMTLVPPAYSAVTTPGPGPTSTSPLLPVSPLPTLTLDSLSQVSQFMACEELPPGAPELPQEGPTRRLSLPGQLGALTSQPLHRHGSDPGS

Point of comparison: `CCN(CC)CCN(C(=O)c1ccc2c(c1)OCCO2)c1nc2ccc(C)cc2s1.Cl`, “hERG current change (%, negative = inhibition) at 10uM” value -71.2%. Against it:
- O=C(c1ccc(CS(=O)Cc2ccc(Cl)cc2)o1)N1CCN(c2ccccn2)CC1 (stereo not shown) — higher, -61.2%
- Cc1cc(N2CCOCC2)nc2ccc(NC(=S)NCc3ccc4c(c3)OCO4)cc12 — higher, -68.5%
- Cc1ccc(OC(C)C(=O)Nc2ccc(S(=O)(=O)Nc3nccs3)cc2)cc1 (stereo not shown) — higher, 6.56%
- COc1cccc(N/C(SCc2ccccc2F)=C(/C#N)C(=O)NCc2cccs2)c1 — higher, 11.3%
- CCN(C(=O)COC(=O)/C=C/c1cccc(Cl)c1)c1c(N)n(Cc2ccccc2)c(=O)[nH]c1=O — higher, 16.5%
- CCOP(=O)(OCC)C(NC(=O)CN1C(=O)c2ccccc2S1(=O)=O)C(Cl)(Cl)Cl (stereo not shown) — higher, 11.5%
- N#CCC(=O)N/N=C/c1ccc(N2N=C(c3ccccc3)CC2c2ccccc2)cc1 (stereo not shown) — higher, 25%
- O=C(NCc1ccc(F)cc1)C1CCC(CNc2c(N3CCOCC3)c(=O)c2=O)CC1 (stereo not shown) — higher, 9.25%
- CNC(=S)N(Cc1ccc(OC)cc1)C1CC(=O)N(c2ccc(C(=O)OC)cc2)C1=O (stereo not shown) — higher, -1.6%
- Cc1ccccc1NC1=NCCCS1 — higher, 11.1%
- CC[C@H](C)[C@H](NC(=O)c1ccc(Cl)cc1)C(=O)OCC(=O)c1ccc2c(c1)NC(=O)CO2 — higher, -45.8%
- O=C(COc1ccccc1)N1CCN(S(=O)(=O)Cc2ccccc2)CC1 — higher, -10.3%
- O=C(NC1CC1)C1=COCCO1 — higher, 13.2%
- N#Cc1ccccc1OCC(=O)NCC(c1cccs1)N1CCOCC1 (stereo not shown) — higher, 0.89%
- O=C(O)c1ccccc1OCCN1CCCC1=O — higher, 13.3%
- CCC(C)(C)C1CCc2[nH]nc(C(=O)NCCNC(=O)OC(C)(C)C)c2C1 (stereo not shown) — higher, 15.7%
- COc1ccc(OC)c2nc(-c3cccnc3)ccc12 — higher, 10.2%
- COc1ccc(CC(=O)NNC(=O)CSc2ccc(C)cc2)cc1 — higher, 17.9%
- CCC1CCCCN1CCCNC(=O)c1ccc(CS(=O)(=O)c2ccc(Br)cc2)o1 (stereo not shown) — higher, -56.7%
- CCOC(=O)Cc1nnc(Nc2ccc(C)cc2)c2ccccc12 — higher, -12.4%
- Cn1c(/C(C#N)=C(\O)c2ccc(Br)s2)nc2ccccc21 — higher, 22.1%
- CCC(=O)N=c1ccn(C2=Nc3ccccc3NC2=C(C#N)C#N)cc1 — higher, -2.7%
- Cc1cccc(C)c1NC(=O)C(=O)NCC1CCCN1S(=O)(=O)c1cccs1 (stereo not shown) — higher, -5.32%
- CCOC(=O)C1(C)C=C(Nc2ccc(O)cc2)C(=O)N1c1ccc(O)cc1 (stereo not shown) — higher, 3.89%
- COc1ccc(Oc2ccc(C(F)(F)F)cc2NC(=O)c2ccc(F)cc2)cc1 — higher, 6.56%
- O=C(Nc1cnn(Cc2ccc(Cl)cc2)c1)C1CCCC1 — higher, -26.3%
- NC(=O)C1CCN(CC(=O)Nc2ccccn2)CC1 — higher, 7.82%
- O=C(NCCc1cccs1)C1CC(c2ccccc2F)=NO1 (stereo not shown) — higher, -0.278%
- CCc1cc2c(=O)[nH]c(Cc3ccccc3)nc2s1 — higher, 4.65%
- COc1ccc(-c2cn[nH]c2N)c(OC)c1 — higher, -7.36%
- C/C(=N\NC(=O)c1ccc(CN2CCOCC2)cc1)c1ccc([N+](=O)[O-])cc1 — higher, -7.18%
- CCOC(=O)C1(CCc2ccccc2)CCN(C(=O)C2=C(C)OCCO2)CC1 — higher, -15.2%
- COC(=O)C1=C(C)N(c2ccc(C)c(C)c2)/C(=C/c2ccco2)C1=O — higher, -1.95%
- COc1ccccc1C1CN(c2ccccc2)N=C1c1cccs1 (stereo not shown) — higher, 14.1%
- CN(C(=O)COC(=O)c1ccccc1OCc1ccc(Cl)cc1)c1c(N)n(Cc2ccccc2)c(=O)[nH]c1=O — higher, 23.5%
- O=C(N/N=C/c1ccncc1)c1cnccn1 — higher, 2.67%
- Cc1ccc2nc(N3CCN(C)CC3)c(C#N)cc2c1 — higher, -42.3%
- CCOc1ccc(C(=O)CN2CCN(S(=O)(=O)c3ccc(OC)cc3)CC2)cc1 — higher, -61.7%
- Cn1c(=O)cc(SCC(=O)N2CCCC2)c2ccccc21 — higher, 15.2%
- Cc1cccc(OP(=O)(Oc2cccc(C)c2)OC(c2ccccc2)C(F)(F)F)c1 (stereo not shown) — higher, 0.253%
- CCN(CC)S(=O)(=O)c1ccc(N2CCCCC2)c(NC(=O)C2CCN(C(=O)c3ccc(F)cc3)CC2)c1 — higher, -9.33%
- O=C(c1ccccc1)C1CCN(C(=O)c2ccc(Cl)cc2)CC1 — higher, -46.5%
- Cc1cccc(NC(=O)c2ccccc2SCc2ccc(F)cc2)n1 — higher, 5.58%
- CC1CCN(S(=O)(=O)Cc2ccccc2Cl)CC1 — higher, 2.27%
- Cc1ccc(-n2c(=O)cc(N3CCN(Cc4ccccc4)CC3)[nH]c2=O)cc1 — higher, 2.26%
- CN1CCN(NC(=O)c2ccc(Cl)c(S(=O)(=O)Nc3ccc(Cl)cc3)c2)CC1.Cl — higher, -7.08%
- CC(=O)c1ccc(OC(C)C)c(CN2CCCCC2)c1.Cl — higher, 0.071%
- CCN1CCc2c(sc(NC(=O)c3ccc(S(=O)(=O)N4CC(C)OC(C)C4)cc3)c2C(N)=O)C1 (stereo not shown) — higher, -54.5%
- COc1ccc(CN2CCN(C(=O)c3ccc(F)cc3)CC2)c(OC)c1.O=C(O)C(=O)O — higher, -44.3%
- COc1ccccc1-c1ccc(=O)n(CC(=O)NCc2ccco2)n1 — higher, -10.1%
- Cc1ccccc1CN1C(=O)[C@H]2Cc3c([nH]c4ccccc34)C(C)(C)N2C1=O — higher, 14%
- CNC(=S)N1CCc2cc(OC)c(OC)cc2C1COc1ccc(OC)cc1 (stereo not shown) — higher, -7.03%
- COc1ccc2c(c1)c(C(=O)CN1CCOCC1)c(C)n2C — higher, -6.42%
- COc1ccc(Cl)cc1N1C(=NC(=O)C2CCCO2)SC2CS(=O)(=O)CC21 (stereo not shown) — higher, -41.3%
- CCOc1ccc(C)cc1-n1nc2ccccc2n1 — higher, -1.41%
- O=C(CSCC(=O)NC1CCCC1)Nc1ccccc1 — higher, 4.17%
- CCN1C(=NCc2ccccc2)N[C@@H](c2ccccc2)[C@H](C(=O)OC)[C@H]1C — higher, 2.51%
- Cc1cc(N2CCN(C)CC2)nc2ccc(NC(=O)CCC(=O)NCCC(C)C)cc12 — higher, 13.8%
- Cc1cc(C)cc(NC(=O)COC(=O)c2cc(=O)[nH]c(=O)[nH]2)c1 — higher, 6.61%
- COc1cc(-c2nc3ccc(C)cn3c2NCc2ccccc2)ccc1SC1CCCCC1.O=C(O)C(F)(F)F — higher, 10.2%
- CCOC(=O)c1c(C)[nH]c(C(=O)C(C)OC(=O)c2cnc(C)cn2)c1C (stereo not shown) — higher, -0.804%
- Cc1ncoc1C(=O)N1CCCC(CCC(=O)NCc2ccccc2F)C1 (stereo not shown) — higher, -6.93%
- Cc1cnc(-c2nnc(N(C)C(=O)C3CCOC3)s2)cn1 (stereo not shown) — higher, -0.297%
- CN(C)S(=O)(=O)c1ccc(NC(=O)COC(=O)c2n[nH]c3ccccc23)cc1 — higher, -0.665%
- C/C(=N\NC(=S)NC(C)C)c1cccc([N+](=O)[O-])c1 — higher, -42.6%
- O=C(COC(=O)c1cccnc1Cl)Nc1cccc(S(=O)(=O)N2CCCCC2)c1 — higher, -13.5%
- CCCCNC(=O)C1CCN(C(=O)C2CCN(S(=O)(=O)c3ccc(C)cc3)CC2)CC1 — higher, -16.9%
- COCC(=O)NCCSc1c(C)[nH]c2ccccc12 — higher, 4.37%
- O=S(=O)(c1ccc(Cl)cc1)N1CCN(c2ncccn2)CC1 — higher, 28.4%
- Cc1c(N=c2scc(-c3ccccc3)n2C)c(=O)n(-c2ccccc2)n1C — higher, -7.61%
- CC1CN(C(=O)/C(C#N)=C2\N=C(NC(=O)c3ccc(F)cc3)c3ccccc32)CC(C)O1 (stereo not shown) — higher, 14.1%
- CCCNC(=S)N1CC2(C)CN(C(=O)C(=O)OCC)CC(C)(C1)C2=O — higher, 4.15%
- COC(=O)[C@H](Cc1ccccc1)NC(=O)Cn1ccc(NC(=O)OCc2ccccc2)nc1=O — higher, -23.5%
- CCOc1ccc(S(=O)(=O)NCCC(=O)NC2CCN(Cc3ccccc3)CC2)cc1 — higher, -21.8%
- Cc1csc(NC(=O)CSc2nnc(-c3ccncc3)n2C)n1 — higher, -17.5%
- COCCC(C(=O)Oc1c(C(C)(C)C)cc(C)cc1C(C)(C)C)c1ccccc1 (stereo not shown) — higher, 18.5%
- CN(NC(=O)c1cccc(Cl)c1)c1nc(-c2ccccc2)nnc1C(F)(F)F — higher, 9.44%
- COc1ccc(/C=C(/NC(=O)c2ccco2)C(=O)Nc2ccc(C(C)=O)cc2)cc1 — higher, 16.5%
- COc1cccc2cc(C(=O)CS(=O)(=O)c3ccc(Cl)cc3)c(=O)oc12 — higher, -0.205%
- Cl.OC(CN1C2=NCCCN2c2ccccc21)c1ccc2c(c1)OCO2 (stereo not shown) — higher, -70.2%
- CC1(C)CC(=O)C2=C(C1)NC(SCC(=O)Nc1ccccc1)=C(C#N)C2c1ccco1 (stereo not shown) — higher, -5.44%
- CCn1ncc(C2C(C(=O)Nc3ccc(C)cn3)=C(C)NC3=C2C(=O)CCC3)c1C (stereo not shown) — higher, 7.67%
- CC(C)NC(=O)CSc1nnc(-c2ccncc2)n1-c1ccccc1 — higher, 11.6%
- COc1cccc(N/C(SCc2cccc([N+](=O)[O-])c2)=C(/C#N)C(N)=O)c1 — higher, -19.9%
